# The whole screen tested about 310,000 compounds, of which about 2,200 (0.71%) showed an effect of 50% or more. Effects have a minus sign here. This is one part of the list.
# Target: human ether-à-go-go-related gene (hERG) potassium channel (human, UniProt Q12809)
# Assay: primary screen, population patch clamp on CHO cells stably expressing hERG
# Sequence of human ether-à-go-go-related gene (hERG) potassium channel (Q12809 whole entry, looked up): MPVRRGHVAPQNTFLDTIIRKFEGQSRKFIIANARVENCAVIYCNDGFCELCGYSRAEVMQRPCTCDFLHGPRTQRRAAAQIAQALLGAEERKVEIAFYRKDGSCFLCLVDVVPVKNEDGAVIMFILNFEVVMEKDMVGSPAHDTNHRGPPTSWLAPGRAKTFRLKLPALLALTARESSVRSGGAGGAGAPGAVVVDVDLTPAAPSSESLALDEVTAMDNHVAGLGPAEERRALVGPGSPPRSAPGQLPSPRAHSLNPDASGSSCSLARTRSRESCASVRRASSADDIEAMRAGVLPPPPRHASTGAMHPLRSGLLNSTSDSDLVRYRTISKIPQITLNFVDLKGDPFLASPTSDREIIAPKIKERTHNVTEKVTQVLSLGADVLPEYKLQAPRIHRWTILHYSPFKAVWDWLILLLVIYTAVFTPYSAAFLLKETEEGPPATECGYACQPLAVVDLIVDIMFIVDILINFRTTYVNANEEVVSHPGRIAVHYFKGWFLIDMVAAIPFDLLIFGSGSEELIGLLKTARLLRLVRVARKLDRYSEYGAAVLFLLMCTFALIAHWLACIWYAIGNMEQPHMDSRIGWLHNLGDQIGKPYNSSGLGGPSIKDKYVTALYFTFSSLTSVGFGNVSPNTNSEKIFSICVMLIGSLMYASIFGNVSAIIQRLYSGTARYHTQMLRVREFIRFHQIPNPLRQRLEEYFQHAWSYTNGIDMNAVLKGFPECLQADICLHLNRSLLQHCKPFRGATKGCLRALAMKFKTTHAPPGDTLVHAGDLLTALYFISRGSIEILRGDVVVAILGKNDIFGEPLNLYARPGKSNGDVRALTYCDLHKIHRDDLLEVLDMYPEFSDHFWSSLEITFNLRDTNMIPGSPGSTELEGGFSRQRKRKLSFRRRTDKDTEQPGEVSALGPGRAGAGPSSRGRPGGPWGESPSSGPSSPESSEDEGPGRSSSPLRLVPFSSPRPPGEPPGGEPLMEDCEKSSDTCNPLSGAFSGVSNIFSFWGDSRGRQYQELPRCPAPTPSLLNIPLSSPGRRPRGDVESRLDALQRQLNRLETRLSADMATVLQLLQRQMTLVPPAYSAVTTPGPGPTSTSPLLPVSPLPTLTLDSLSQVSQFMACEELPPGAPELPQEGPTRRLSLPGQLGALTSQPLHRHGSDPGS
row,SMILES,"hERG current change (%, negative = inhibition) at 1uM [%]"
1,CCN(CC(=O)NCc1ccc(Cl)cc1)C(=O)CSc1ccccc1,-22.5
2,COc1cc(/C=C2\CCC(C3CCCC3)C2=O)ccc1OC(C)C (centres unmarked),10.1
3,O=S(=O)(c1ccc(OCC(O)CN2CCc3ccccc3C2)cc1)N1CCOCC1 (centres unmarked),5.61
4,Clc1ccc(-c2c[n+](Cc3ccc(Cl)cc3Cl)c3n2CCCCC3)cc1.[Br-],-21
5,CCCc1nc2c(s1)CCc1onc(-c3ccc(Cl)cc3)c1-2,12.5
6,Cc1ccc(NC(=O)N2CCC(O)(c3cccnc3)CC2)cc1,9.55
7,COc1ccccc1Nc1nc(N)nc(CSCCO)n1,11.2
8,CCOC(=O)C(NCc1ccco1)(NC(=O)c1ccc(OC)cc1)C(F)(F)F (centres unmarked),5.91
9,COc1ccc2cc(C(=O)C3CCCN(C4CCOCC4)C3)ccc2c1 (centres unmarked),-23.7
10,CN(C(=O)CN1CCCCCC1)c1c(N)n(Cc2ccccc2)c(=O)[nH]c1=O,8.52
11,COc1ccccc1C(=O)NCCNc1ccc([N+](=O)[O-])cc1Cl,16.6
12,CCc1ccc(Nc2nnc(SCC(=O)NC(=O)CN3CCCC3=O)s2)cc1,8.06
13,CC(=O)Nc1ccccc1-c1nc2ccc(C(=O)N3CCN(c4ccccc4)CC3)cc2[nH]c1=O,11.3
14,N#C/C(=C(/O)COc1ccc(Cl)cc1)c1nc2ccccc2s1,16.8
15,CC(C)OCCCNC(=O)c1c(N)n(/N=C/c2cccs2)c2nc3ccccc3nc12,-3.4
16,CCCCCCC1CCC(C(=O)N2CCOCC2)CC1 (centres unmarked),7
17,Cc1ccc2nc(-c3ccc4c(c3)NC(=O)CO4)cn2c1,16.6
18,c1ccc2c(c1)ccc1nnc(SCc3ccc4c(c3)OCCO4)n12,10.1
19,Clc1ccc(-c2nnc(NCCN3CCCC3)c3ccccc23)cc1,-55.1
20,CCOCCOC(=O)COc1ccc2c(-c3ccccc3)cc(=O)oc2c1,6.86
21,Cc1cc(NC(=O)Cn2cnc3c2c(=O)n(C)c(=O)n3C)n(-c2ccccc2)n1,-2.51
22,COc1cc(N)c(C(O)c2nccc3cc(OC)c(OC)cc23)cc1OC (centres unmarked),16.2

row,SMILES,"hERG current change (%, negative = inhibition) at 1uM [%]"
1,CC1(C)CC(N2CN(C3CCCCC3)CC2=O)CC(C)(C)N1,8.03
2,COc1ccccc1C(=O)Nc1ccccc1C(=O)N1C(C)CCCC1C (centres unmarked),12.7
3,COCCNC(=S)NNC(=O)c1cccs1,15.9
4,O=C(CSc1nnc(-c2ccc(F)cc2)c2ccccc12)NCC1CCCO1 (centres unmarked),-8.17
5,N#Cc1c(NC(=O)CCC(=O)O)sc2c1CCCCC2,5.91
6,Cc1c(Br)c(C(=O)NNC(=O)c2ccc(C(C)(C)C)cc2)nn1C,12.3
7,CCOC(=O)CSc1nnc(-c2ccc(OC)cc2)n1CC,11.2
8,NC(=O)c1nnn(-c2nonc2N)c1-c1ccc([N+](=O)[O-])cc1,7.76
9,CN1CCN(c2ncnc3scc(-c4ccccc4Cl)c23)CC1,-3.39
10,CCOc1ccc2ccccc2c1CNCCc1ccc(S(N)(=O)=O)cc1.Cl,-30.1
11,CC(C)NC(=O)Cn1nnc(-c2cccc(NC(=O)c3ccccc3F)c2)n1,5.77
12,CN(C)NC1=CC(=[N+]2CCCC2)CC(C)(C)C1.[I-],14
13,Cc1ccc(/C=N/N2CCN(c3ccncc3S(=O)(=O)N3CCCCC3)CC2)cc1,5.34
14,COc1ccccc1N1CCN(C(=O)/C=C/c2ccc(C)cc2)CC1,7.96
15,Cc1ccc(NC(=O)c2cc3ccccc3oc2=N)cc1,11.2
16,COCCCNC(=O)c1ccc2c(c1)nc(C)n2-c1cccc(C)c1,14
17,COc1cccc(/C=C/C(=O)NCCc2ccc3c(c2)OCCO3)c1,4.9
18,CC1CN(C2CCN(C(=O)c3ccccc3)CC2)CC(C)O1 (centres unmarked),4.85
19,Cc1ccc(N(C)S(=O)(=O)c2c(C)noc2/C=C/N(C)C)cc1,3.86
20,CCCn1c(=N)c(S(=O)(=O)c2ccc(F)cc2)cc2c(=O)n3ccccc3nc21,6.66
21,Cc1ccc(NC(=O)COC(=O)CNC(=O)c2ccc(C)s2)cc1,4.41
22,NS(=O)(=O)c1cccc(NC(=O)CC23CC4CC(C2)CC(CC(=O)Nc2cccc(S(N)(=O)=O)c2)(C4)C3)c1,12.4
